The source gives no read counts; variants with many changes may rest on few reads.
B1: LINE1-mini (parent)
chain: GGCAGAGCUCAACACAGCGUGGCAAAGUGGCUGUGGCUAGACUGCC

Variants of: B1
Experiment: self-cleavage, relative activity (ratio to wild type); higher = more cleavage; in vitro, sequencing; the parent is a self-cleaving ribozyme

Row | Variant | self-cleavage
1 | A6U C13U C37G A41U | 0.03
2 | A6U C10G U28A C37U | 0.01
3 | A6G G7A C15U C18U | 0.03
4 | A6G G17C A39U A41G | 0.03
5 | A6U C18G G19A C31G U43C | 0.04
6 | A6G G19U G22A G27U | 0.03
7 | A6G C18A G36U A39U | 0.06
8 | A6G C15U G17A G27C | 0.03
9 | A6U C8G C45G | 0.21
10 | A6G G22U G30C C46U | 0.14
11 | A6G C15G G30U G36A C46A | 0.03
12 | A6G C18A C42U | 0.06
13 | A6G C18G G33U | 0.06
14 | A6U A14U A16C C18G A24U U38G U43C C45U | 0.3
15 | A6U A14U A16G | 0
16 | A6G G30C G40A | 0.08
17 | A6G G33C A41U | 0.03
18 | A6U C10U C18U G29C A39G | 0.03
19 | A6U C8A U9G G21C A26C A41C G44A | 0.03
20 | A6U C15U G19C A26U | 0.3
21 | A6G C15U C31A | 0.11

Row | Variant | self-cleavage
22 | A6G U9G G36U | 0.03
23 | A6G G29U C45A | 0.08
24 | A6U A14C A41C | 0.32
25 | A6G U9A G17U A26U | 0.03
26 | A6U C10G A11U | 0.05
27 | A6U A12C A16C A24C | 0.02
28 | A6G C15G G17U C42A | 0.03
29 | A6G G17C A26C G29U | 0.07
30 | A6U A12G A26U | 0.11
31 | A6G C15G U32A C42A C46A | 0.01
32 | A6U C13U A16C | 0.22
33 | A6U C8U C15A | 0.06
34 | A6U A14U G22U A25U G35A | 0.1
35 | A6G G17A U38C | 0.05
36 | A6G G27A U28A C45U | 0.07
37 | A6U A11G G21A G35U A41C G44A C45U | 0.02
38 | A6G U9C A12C U38A | 0
39 | A6U A16C C37G | 0.02
40 | A6U C8G C13U G22C A26G G29U C37G | 0.42
41 | A6U C15A G29C C31G G35A G40U | 0.1
42 | A6U A16G C18A G19A | 0.04

Row | Variant | self-cleavage
43 | A6G G17A G30A G35U | 0.04
44 | A6G G17A C23U C42A | 0.06
45 | A6G C31G U34C | 0
46 | A6G C18U G36U | 0.1
47 | A6G C13U G33C | 0.02
48 | A6G G17U C46U | 0.02
49 | A6U C8G A14G C18U C23U U32G G33U | 0.01
50 | A6U C15U G29A G36A | 0.36
51 | A6G C15U G22U A24U A41C | 0.06
52 | A6U A14G C23A G33U | 0.15
53 | A6U C8A C10G G27A | 0.02
54 | A6G C37U C45U | 0
55 | A6G U9G G17A A25G | 0.01
56 | A6G G7A C15U G19U G40C | 0.24
57 | A6U A11G C15U | 0.02
58 | A6G G7U G22A C45U | 0.02
59 | A6U A12U C13U C23G U32C | 0.05
60 | A6U C8A A26G | 0.27
61 | A6U A26U C31A C45U | 0.16
62 | A6G G35C G44C C45A | 0.14
63 | A6G C15U G33C G36C C42U G44U C46U | 0

Row | Variant | self-cleavage
64 | A6G G7A A16C A41C U43G C45A | 0.03
65 | A6G C23A G35C U43C | 0.03
66 | A6G C18U G30A C37G A39C | 0.08
67 | A6U A14C A24C A41U | 0.05
68 | A6G C18A C45G C46U | 0.06
69 | A6U C13G A14C A25G G33A C42U | 0.01
70 | A6G C15G G44U | 0.01
71 | A6G C18G C42A | 0.03
72 | A6G U32G C37G | 0
73 | A6U C8U G22C G40A | 0.19
74 | A6U C10U G27U | 0.08
75 | A6U C8U G22C A25G U28C C31A | 0.06
76 | A6G G21C A25C G27C | 0.07
77 | A6G G22A C31A | 0.02
78 | A6U A12G A41U | 0.03
79 | A6G G7A A39U | 0.04
80 | A6G G7A A39G | 0.04
81 | A6G G17U C23U G35U | 0.04
82 | A6G C18U G21U A25U | 0.19
83 | A6U C13A C15U G17A G27C | 0.06
